From PubChem BioAssay AID624417 (National Center for Advancing Translational Sciences (NCATS), 2012)
Among all 410,000 compounds or so, about 6,400 (1.6%) were called active. Inconclusive means that the source gave no clear call. Such entries were picked first, then a sample of the others. Calls follow the shape of the dose curve; as a rule, active = well fitted inhibition curve with a large enough effect; inconclusive = small, poorly fitted or top-dose-only effect; inactive = no such curve, though single readings can be large or run the other way. Potencies of inconclusive entries are left out as doubtful fits.

Biological target: Glucagon-like peptide 1 receptor (Homo sapiens) (UniProt P43220)
Experiment: qHTS of GLP-1 Receptor Inverse Agonists (Inhibition Mode); also: nearly all actives have a fitted effect of over 55% in size
Details: HEK293 GLP-1R CRE-luciferase, luminescence, 24 h, GLP-1R form is constitutively active; activity change, negative = inhibition: at 38.3 µM (top of the series) unless noted
Procedure, shortened: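 Assay principle: reduced luminescence from a cAMP-responsive reporter in HEK293 cells co-expressing a constitutively active GLP-1R. Conditions: 24 hr compound incubation, 37 deg C, 5% CO2.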
% is scaled to controls: 0 for no effect and ±100 for the full control effect; potency is read from the fitted curve at half-maximal effect; tags tell the direction and shape of the fitted curve.

Chain of UniProt P43220 (P43220 whole entry, looked up): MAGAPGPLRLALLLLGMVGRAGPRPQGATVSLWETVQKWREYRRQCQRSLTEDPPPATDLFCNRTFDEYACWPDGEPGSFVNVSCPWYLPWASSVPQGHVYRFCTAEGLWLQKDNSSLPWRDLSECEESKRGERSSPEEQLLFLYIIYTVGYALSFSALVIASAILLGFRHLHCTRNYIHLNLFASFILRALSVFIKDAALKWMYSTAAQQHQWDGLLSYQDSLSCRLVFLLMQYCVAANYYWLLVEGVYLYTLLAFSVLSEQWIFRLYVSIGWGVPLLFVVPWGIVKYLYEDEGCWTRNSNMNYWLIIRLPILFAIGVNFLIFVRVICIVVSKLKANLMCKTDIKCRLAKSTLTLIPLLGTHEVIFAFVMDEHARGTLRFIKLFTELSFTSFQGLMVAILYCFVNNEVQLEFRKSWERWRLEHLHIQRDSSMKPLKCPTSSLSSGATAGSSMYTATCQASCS

Row | SMILES | Potency | activity change, negative = inhibition
1 | Cn1cc(C2OC(=O)c3ccccc32)c2ccccc21 (configuration not stated) | inconclusive [inhibitor, single point] | 
2 | CC(=O)Nc1ccc(S(=O)(=O)N2CCN(S(=O)(=O)c3ccc(F)c(F)c3F)CC2)cc1 | inactive | 
3 | CCn1cc(Br)c(C(=O)Nc2ccc(Cl)c(Cl)c2)n1 | inconclusive [inhibitor, single point] | 
4 | O=C(CSc1nnc(-c2ccccc2)n1Cc1ccccc1)N1CCCC1 | inconclusive [inhibitor, single point] | 
5 | O=C(NNC(=O)c1ccc(O)cc1O)c1ccc(-c2ccccc2)cc1 | inconclusive [inhibitor, single point] | 
6 | COc1cccc(C2CC(c3cccs3)=NN2C(=O)CSc2nc3ccccc3s2)c1OC (configuration not stated) | inconclusive [inhibitor, partial curve] | 
7 | Cc1cccn2c(=O)c3cc(C(=O)NCCN4CCOCC4)c(=N)n(Cc4ccc(F)cc4)c3nc12 | inconclusive [inhibitor, full curve, poor fit] | 
8 | CC(=O)Nc1nnc(-c2ccco2)o1 | inactive | 
9 | CCOC(=O)Cc1ccc(NC(=O)NCc2cccn2Cc2ccccc2)cc1 | inconclusive [inhibitor, partial curve, poor fit] | 
10 | CN(C(=O)COC(=O)c1cnc(Cl)c(Cl)c1)C1CCCCC1 | inconclusive [inhibitor, single point] | 
11 | COc1ccc2c(c1)C(=O)N1[C@H]3c4cc(OC)ccc4OC[C@@H]3[C@H](c3ccccc3)[C@]1(C)C(=O)N2 | inconclusive [inhibitor, single point] | 
12 | Cc1cc(F)ccc1S(=O)(=O)Nc1ccc2c(c1)CCCN2C(=O)c1cccs1 | inconclusive [inhibitor, single point] | 
13 | COC(=O)c1cnc(NCc2ccc(F)cc2)c2ccccc12 | inconclusive [inhibitor, single point] | 
14 | O=C(CN1C(=O)NC2(CCCc3ccccc32)C1=O)N1CCCCC1 (configuration not stated) | inactive | 
15 | Cc1ccc(Nc2c(N)c(=O)oc3ccccc23)cc1 | inconclusive [inhibitor, single point] | 
16 | Cc1ccc(-c2cc3nn(-c4ccccc4)c(N)c3c(=O)o2)cc1 | inactive | 
17 | Nc1c(C(=O)N2CCCC2)sc2nc3c(cc12)CCCCCC3 |  | inactive: -18.3% [at 7.66 µM]
18 | CCCNC(=O)N1[C@H](c2ccc(C)s2)[C@@H](C)C(=O)[C@@H](C)[C@@H]1c1ccc(C)s1 | inconclusive [inhibitor, full curve, poor fit] | 
19 | CCC[N+](CC#Cc1ccccc1)(CCC)CC(=O)c1ccc(Cl)cc1 | inconclusive [inhibitor, single point] | 
20 | Cc1ccc(N2CCN(C(=O)c3cc(-c4ccc(F)cc4)[nH]c3C)CC2C)cc1 (configuration not stated) |  | inconclusive: -92.3% [inhibitor]
21 | CC(C)CC(COCc1cccc(Cl)c1)N1CCN(C(=O)c2ccc(C(F)(F)F)cc2)CCC1=O (configuration not stated) | active: 10 µM | 

Row | SMILES | Potency | activity change, negative = inhibition
22 | CCCc1cc(C(=O)Nc2cccnc2Cl)no1 | inactive | 
23 | CC1(C(=O)NS(=O)(=O)c2cccc(Cl)c2)CCN1C(=O)CCc1ccc(Cl)cc1Cl (configuration not stated) | inconclusive [inhibitor, single point] | 
24 | Cc1ccc(-n2ncc3c(NCCCn4ccnc4)ncnc32)cc1Cl | inconclusive [inhibitor, partial curve] | 
25 | Cc1cc(Cl)c(OCCCN(C)C)c(Br)c1 | inconclusive [inhibitor, single point] | 
26 | COc1ccc(C(C(=O)NCc2ccccc2)N(C(=O)Cn2nnc3ccccc32)c2cccc(OC)c2)cc1 (configuration not stated) | inactive | 
27 | Cc1cccc(C(C)Nc2ccc([N+](=O)[O-])cn2)c1 (configuration not stated) | inconclusive [inhibitor, partial curve, poor fit] | 
28 | Cc1cc(C)nc(Sc2nc(C)nc3c2oc2ccccc23)n1 | inconclusive [inhibitor, full curve, poor fit] | 
29 | CN(Cc1ccccc1)C(c1ccnc2ccccc12)c1nnnn1-c1ccc2c(c1)OCCO2 (configuration not stated) | inconclusive [inhibitor, single point] | 
30 | CCCCCCCCCC1(CC(=O)OCC)SCCN1C(N)=O (configuration not stated) | inconclusive [inhibitor, partial curve, poor fit] | 
31 | CSc1ccc(OC2CCN(Cc3ccccc3)CC2)cc1 | inconclusive [inhibitor, partial curve, poor fit] | 
32 | Fc1ccc(-c2[nH]ncc2CN2CCN(c3ccc(F)cc3)CC2)cc1 | inconclusive [inhibitor, single point] | 
33 | c1ccc(SCCN2CCc3ccccc3C2)cc1 | inconclusive [inhibitor, partial curve, poor fit] | 
34 | O=C1Cc2ccccc2Sc2ccccc21 | inconclusive [inhibitor, partial curve, poor fit] | 
35 | Fc1ccc(NC(=S)NCCc2ccccn2)cc1 | inactive | 
36 | O=C(Cc1ccc(Br)cc1)NCCc1ccccc1 | inconclusive [inhibitor, single point] | 
37 | CCCOc1ccc(F)cc1-c1cc(C(=O)Nc2ccc(OC)cc2C)[nH]n1 | inconclusive [inhibitor, single point] | 
38 | Cc1cc(-c2ccc(C)c(S(=O)(=O)NC(c3cccs3)C(C)C)c2)on1 (configuration not stated) | inconclusive [inhibitor, single point] | 
39 | Cc1csc(Nc2ccc(Cl)cc2)[n+]1-c1ccc(Cl)cc1 | inconclusive [inhibitor, partial curve, poor fit] | 
40 | O=C(OCc1cnc(Cl)s1)c1cccc(Cl)c1 | inconclusive [inhibitor, single point] | 
41 | O=C(Nc1cccc(F)c1)N(Cc1ccc(Cl)cc1)CC(O)C(F)(F)F (configuration not stated) | active: 5.62 µM | 
42 | CN(CCOc1ccccc1)C(=O)c1cc(COc2c(F)cccc2F)on1 | inconclusive [inhibitor, single point] | 
